From PubChem BioAssay AID504339 (National Center for Advancing Translational Sciences (NCATS), 2011)
Screen size: about 390,000 compounds; about 17,000 (4.4%) were called active. The inconclusive results got no clear call from the source; some entries with a clear call stand among them for comparison. Calls follow the shape of the dose curve; as a rule, active = well fitted inhibition curve with a large enough effect; inconclusive = small, poorly fitted or top-dose-only effect; inactive = no such curve, though single readings can be large or run the other way. Potencies of inconclusive entries are doubtful fits and often do not repeat.

Biological target: Lysine-specific demethylase 4A (Homo sapiens) (UniProt O75164)
Chain of UniProt O75164 (O75164 whole entry, looked up, the tested form may be a part): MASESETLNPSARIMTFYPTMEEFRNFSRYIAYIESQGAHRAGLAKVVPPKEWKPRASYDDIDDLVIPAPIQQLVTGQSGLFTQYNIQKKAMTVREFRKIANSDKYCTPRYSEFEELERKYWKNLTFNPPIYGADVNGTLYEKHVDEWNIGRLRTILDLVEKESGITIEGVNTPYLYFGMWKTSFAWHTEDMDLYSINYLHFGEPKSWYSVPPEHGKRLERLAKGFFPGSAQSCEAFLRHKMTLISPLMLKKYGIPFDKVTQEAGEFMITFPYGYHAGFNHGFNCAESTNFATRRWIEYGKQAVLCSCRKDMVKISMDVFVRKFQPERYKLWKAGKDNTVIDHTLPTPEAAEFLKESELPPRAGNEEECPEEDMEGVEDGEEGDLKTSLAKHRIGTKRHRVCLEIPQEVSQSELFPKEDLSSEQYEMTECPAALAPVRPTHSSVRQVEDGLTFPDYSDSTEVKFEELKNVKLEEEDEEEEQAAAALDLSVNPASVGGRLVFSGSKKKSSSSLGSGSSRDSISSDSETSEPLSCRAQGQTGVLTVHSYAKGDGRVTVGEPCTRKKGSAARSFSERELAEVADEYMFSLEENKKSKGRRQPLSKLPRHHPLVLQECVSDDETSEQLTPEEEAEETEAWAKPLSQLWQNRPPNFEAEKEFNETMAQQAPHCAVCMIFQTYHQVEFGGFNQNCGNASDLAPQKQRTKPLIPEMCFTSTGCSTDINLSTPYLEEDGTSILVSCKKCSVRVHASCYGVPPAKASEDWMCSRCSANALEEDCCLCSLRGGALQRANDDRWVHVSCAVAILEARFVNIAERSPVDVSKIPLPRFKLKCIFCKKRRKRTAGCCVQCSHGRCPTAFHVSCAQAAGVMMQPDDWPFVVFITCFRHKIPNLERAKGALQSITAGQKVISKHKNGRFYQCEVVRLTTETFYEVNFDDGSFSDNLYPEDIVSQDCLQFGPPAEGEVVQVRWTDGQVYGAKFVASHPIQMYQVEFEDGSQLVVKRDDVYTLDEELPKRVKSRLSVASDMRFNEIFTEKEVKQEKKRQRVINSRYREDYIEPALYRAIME
Test: qHTS Assay for Inhibitors of JMJD2A-Tudor Domain; also: nearly all actives have a fitted effect of over 50% in size
Settings: AlphaScreen JMJD2A-Tudor / H3K4me3 peptide binding; series mostly up to 114 µM
Potency is read from the fitted curve at half-maximal effect; tags tell the direction and shape of the fitted curve.

SMILES | Potency
COCCNC(=O)C1CCN(Cc2cccc(OCc3ccccc3)c2)CC1 | active: 0.794 µM
COC(=O)c1ccc(Cn2cnc3c(N)ncnc32)cc1 | inactive
CCCC(CCC)C(=O)Nc1nnc2n1CCS2 | inconclusive: 4.47 µM [inhibitor, single point]
COCCNC(=S)N(CCc1c(C)[nH]c2ccc(F)cc12)Cc1cccnc1 | inconclusive: 79.4 µM [inhibitor, partial curve]
Cn1c(-c2ccccc2)cnc1SCC(=O)N1CCCc2ccccc21 | inconclusive: 39.8 µM [inhibitor, partial curve]
Cc1sc(NC(=O)C2CCCC2)c(C#N)c1C | inactive
CN(C)c1ccc(NC(=O)CSc2nc3ccccc3c(=O)n2C2CCCCC2)cc1 | active: 7.94 µM
COC(=O)c1sc(NC(=O)c2ccc([N+](=O)[O-])o2)c(C#N)c1C | inconclusive: 44.7 µM [inhibitor, partial curve]
O=c1c2sc3ccccc3c2[nH]c(=S)n1CCN1CCOCC1 | inconclusive: 14.1 µM [inhibitor, partial curve, poor fit]
C/C(=N/NC(=O)CNC(=O)Cc1ccccc1)c1ccco1 | inconclusive: 22.4 µM [inhibitor, full curve, poor fit]
CCc1ccc(NS(=O)(=O)c2ccc(C)c(C(=O)N3CCOCC3)c2)cc1 | inactive
C/C(CCc1oc2c(Br)cc(Br)cc2c1-c1ccc(C)o1)=N\O | inconclusive: 79.4 µM [inhibitor, partial curve]
CN(C)CCCN=C(NO)c1ccc(Cl)cc1Cl | inconclusive: 39.8 µM [inhibitor, partial curve]
CCN1C(=O)/C(=C\C=C2/C=CC=CN2CC)SC1=S | inconclusive: 28.2 µM [inhibitor, full curve]
Cc1nc(-c2cccc(N)c2)cs1 | inconclusive: 22.4 µM [inhibitor, full curve]
C/C(=N\OC(=O)Nc1ccc(Cl)cc1)c1ncc(C(F)(F)F)cc1N1CCOCC1 | inconclusive: 89.1 µM [inhibitor, single point]
CC1(C)c2[nH]c3ccccc3c2C[C@H]2C(=O)N(Cc3ccc(F)cc3)C(=O)N21 | inconclusive: 44.7 µM [inhibitor, full curve]
CCc1ccc(-n2c(=O)c3ccccc3n3c(=S)[nH]nc23)cc1 | active: 4.47 µM
CN(c1ccccc1)S(=O)(=O)c1cccc(C(=O)Nc2ncn[nH]2)c1 | inconclusive: 89.1 µM [inhibitor, single point]
COc1ccc(C(=O)CSc2nnc(CNC(=O)c3ccc(OC)cc3)n2C)cc1 | active: 50.1 µM
OCC(O)C1OC(c2ccco2)OC(CO)C1O (centres undefined) | inactive
CC(=O)C(/C=N/c1cc(-c2ccc(C)cc2)nn1-c1ccccc1)=C(\C)O | inactive
CCN1C(=O)C(CC(=O)NCCc2ccccc2)N(NC(=O)c2cccnc2)C1=S (centres undefined) | inconclusive: 28.2 µM [inhibitor, single point]
COc1ccc(CCN=c2c([N+](=O)[O-])nn(-c3cccc(C)c3)n2O)cc1OC | inconclusive: 50.1 µM [inhibitor, partial curve]
Cn1nc(C(=O)Nc2cc(Cl)ccc2N2CCCC2)c2ccccc2c1=O | inconclusive: 31.6 µM [inhibitor, partial curve]

SMILES | Potency
O=C(O)c1ccc(N/N=C/c2cc3c(cc2[N+](=O)[O-])OCO3)cc1 | inconclusive: 79.4 µM [inhibitor, partial curve]
CCOc1ccc(S(=O)(=O)N(C(=O)c2ccco2)c2cc3sc(=O)oc3c3ccccc23)cc1 | inconclusive: 35.5 µM [inhibitor, single point]
COc1cccc(NC(=O)CSc2nccn2Cc2ccc3c(c2)OCO3)c1 | inconclusive: 50.1 µM [inhibitor, partial curve]
CCOC(=O)c1ccc(S(=O)(=O)Nc2cc(S(=O)(=O)N3CCOCC3)ccc2O)cc1 | inconclusive: 35.5 µM [inhibitor, partial curve]
CCN(CC)c1ccc(NC(=O)CN2CCN(CC(=O)Nc3ccccc3F)CC2)cc1 | inconclusive: 56.2 µM [inhibitor, partial curve]
Cc1ccc2nc(N3C(=O)C(O)=C(C(=O)c4ccc(C)o4)C3c3cccc(O)c3)sc2c1 (centres undefined) | inconclusive: 1.78 µM [inhibitor, full curve]
COc1cccc(/C=N/NC(=O)C[n+]2ccccc2)c1O | active: 44.7 µM
Cn1c(N)c(C(=O)COC(=O)c2cc(C(F)(F)F)nc3ccccc23)c(=O)n(Cc2ccccc2)c1=O | inactive
COc1ccc([C@H]2CC(=O)C=C(c3ccccc3OC)C2)cc1OC | inconclusive: 44.7 µM [inhibitor, partial curve]
O=C(Nc1ccc([N+](=O)[O-])cc1)Nc1nc(-c2ccc(Cl)s2)cs1 | inactive
Cc1ccc(S(=O)(=O)CCC(=O)Nc2sccc2C(N)=O)cc1 | inactive
CCOC(=O)c1c(C)[nH]c(C(=O)CN(C)CC(=O)Nc2ccccc2Cl)c1C | inconclusive: 50.1 µM [inhibitor, partial curve]
COC(=O)c1ccccc1NC(=O)C1(c2cccs2)CCOCC1 | inconclusive: 89.1 µM [inhibitor, single point]
Cc1cc(C)c2c(N)c(S(=O)(=O)c3ccccc3)sc2n1 | inactive
COc1ccc(NC(=S)N2CCC(Cc3ccccc3)CC2)cc1OC | inconclusive: 56.2 µM [inhibitor, partial curve]
CN(CCO)c1nc2c(c(=O)n(Cc3ccc(Cl)cc3)c(=O)n2C)n1C | inconclusive: 3.55 µM [inhibitor, full curve, poor fit]
CC(=O)Oc1ccc(C(=O)Nc2cccc(-c3nnc(-c4ccco4)o3)c2)cc1 | inactive
COc1ccc(/C(C)=N/Nc2nc3ccccc3nc2C)cc1 | inconclusive: 20 µM [inhibitor, full curve]
O=C(NCCCn1ccnc1)Nc1ccc2c(c1)OCO2 | inactive
O=C1/C(=C/c2ccccc2)SC(=S)N1CC(=O)N1CCCCC1c1cccnc1 (centres undefined) | active: 35.5 µM
COc1cccc(C(=O)Nc2nc3nc(C)c(C)c(=O)n3[nH]2)c1 | active: 89.1 µM
CCOc1ccc(N=c2scc(-c3ccc(OC)cc3)n2CCO)cc1 | inconclusive: 28.2 µM [inhibitor, partial curve]
CCCCn1nc(C(=O)Nc2c(C)n(C)n(-c3ccccc3)c2=O)c2ccccc2c1=O | inactive
O=C1NCCCC1C(=O)N/N=C/c1cc([N+](=O)[O-])ccc1O (centres undefined) | active: 39.8 µM
Cc1cnc(C(=O)OC(C)C(=O)Nc2cccc3ccccc23)cn1 (centres undefined) | inactive

SMILES | Potency
O=C(COC(=O)c1ccc2c(c1)C(=O)N(Cc1ccncc1)C2=O)Nc1ccccc1[N+](=O)[O-] | inconclusive: 10 µM [inhibitor, full curve, poor fit]
S=C(Nc1ccccc1)Nc1ccc(Br)cc1 | inactive
CCC(C)NCCOCCSc1ccc(Cl)cc1 (centres undefined) | active: 3.55 µM
COc1cc(C2CC(=O)Oc3c(C(CCN4CCOCC4)c4ccc(N(C)C)cc4)c(OC)cc(OC)c32)cc(OC)c1OC (centres undefined) | active: 39.8 µM
N#Cc1nc(Nc2cccc(Cl)c2)nc(NC2CCCC2)n1 | inactive
Cc1cc2nc(CCN(C(=S)NCC(C)C)C3CCCC3)[nH]c2cc1C | inconclusive: 50.1 µM [inhibitor, partial curve]
O=S(=O)(Nc1cccc(Cl)c1)c1ccc2oc(=S)[nH]c2c1 | active: 20 µM
O=C(CCc1ccc(S(=O)(=O)N2CCOCC2)cc1)N/N=C/c1ccc(O)c(O)c1O | active: 79.4 µM
c1cc[n+](CCC[n+]2ccccc2)cc1 | inconclusive: 28.2 µM [inhibitor, single point]
CCOc1ccc(-c2nc(SCC(=O)Nc3cc(F)ccc3F)n3[nH]c(=O)cc3n2)cc1 | inconclusive: 56.2 µM [inhibitor, partial curve]
COc1cccc(NC(=O)Cn2c(=O)n(CCc3ccc(OC)c(OC)c3)c(=O)c3ccccc32)c1 | inactive
COc1cccc(NC(=O)Nc2cc(C(=O)NC(C)C)ccc2N2CC3CC(C2)c2cccc(=O)n2C3)c1 (centres undefined) | inconclusive: 20 µM [inhibitor, full curve]
CCc1ccc(OCc2cc(=O)n3cc(C)sc3n2)cc1 | inactive
Nn1c(SCC(=O)Nc2ccc3c(c2)OCO3)nnc1-c1ccc(Cl)cc1 | inactive
Cn1c(N)c(-c2ccccc2)c2ccc([N+](=O)[O-])cc2c1=O | inconclusive: 79.4 µM [inhibitor, partial curve]
CCC(C)Sc1nnc(CNS(=O)(=O)c2ccc(F)cc2)n1C (centres undefined) | inactive
CCC(=O)Nc1ccc(C(=O)NNC(=O)COc2cc(C)ccc2C)cc1 | inactive
COc1ccc(C(=O)N2CCN(C(=O)c3cc(OC)c(OC)c(OC)c3)CC2)cc1 | inactive
COc1ccc(-c2nc(CS(=O)(=O)CC(=O)Nc3cccc(C(C)=O)c3)c(C)o2)cc1 | inactive
O=C(Nc1cc(Cl)cc(Cl)c1)c1ccc(F)c(S(=O)(=O)N2CCN(c3ccccc3F)CC2)c1 | inactive
Cn1c(=N)c(S(=O)(=O)c2ccccc2)cc2c(=O)n3ccccc3nc21 | inactive
CC1CC(c2ccccc2)n2nc(NC(=O)c3ccco3)nc2N1 (centres undefined) | inconclusive: 89.1 µM [inhibitor, single point]
COc1ccc(N2C(=O)C3C(C2=O)C(C(=O)c2ccccc2)N2CCCC32)cc1 (centres undefined) | inconclusive: 44.7 µM [inhibitor, full curve, poor fit]
COc1cccc(Nc2nc(-c3sc(NC(=O)CC(C)C)nc3C)cs2)c1 | inconclusive: 56.2 µM [inhibitor, partial curve]
